Assay results reported in the BET-seq Pho4 binding data (Le et al. 2018).
This is one part of the list. These are noisy estimates, calculated here from bound and input reads.

Molecular target: T1, Pho4 (S. cerevisiae) (UniProt P07270)
T1 sequence: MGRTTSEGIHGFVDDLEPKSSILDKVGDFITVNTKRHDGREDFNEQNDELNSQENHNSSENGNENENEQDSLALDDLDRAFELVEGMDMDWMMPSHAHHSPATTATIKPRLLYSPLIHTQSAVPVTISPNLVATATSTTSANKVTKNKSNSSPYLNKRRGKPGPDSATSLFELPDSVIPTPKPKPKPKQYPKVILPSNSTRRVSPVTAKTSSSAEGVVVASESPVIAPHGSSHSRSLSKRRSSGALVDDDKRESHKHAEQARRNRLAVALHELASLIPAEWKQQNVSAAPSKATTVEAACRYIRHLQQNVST
Test: relative binding free energy (BET-seq); higher = weaker binding
Details: reference: library average

Sequence	relative binding free energy [kcal/mol]
TTGGACACGTGACTTT	0.15
ATAAGCACGTGGCGTG	-0.13
AGGTTCACGTGTGACG	0.34
CTTTGCACGTGTGGGG	0.1
TAGTGCACGTGCTGGT	-0.06
TCTGGCACGTGGATGT	0
GGGTGCACGTGTGGCT	0.16
AGGTTCACGTGTTTCG	0.22
ATGATCACGTGACAGG	0.27
GTTGGCACGTGTGCGG	-0.08
CGGTGCACGTGGGATA	-0.18
TAGTTCACGTGTGCAG	0.19
CTTGTCACGTGTAGTA	0.11
TAGGTCACGTGCTGGC	0
TATTTCACGTGTTACT	0.22
ATGTCCACGTGATTTG	0.17
TTTAGCACGTGCGCGT	-0.18
GGTAACACGTGGTAAT	0.11
AGTGGCACGTGGTTAG	-0.21
TCGTGCACGTGTCGGA	-0.01
CGGAACACGTGTGGCG	0.17
ATATTCACGTGGGAAT	0.1
GTGCGCACGTGGGATA	-0.11
GCACGCACGTGAAGGG	0.32
TGTTACACGTGTAAGT	0.25
CTTTACACGTGGGCTT	-0.03

Sequence	relative binding free energy [kcal/mol]
GCAAGCACGTGTGGGG	-0.03
TAGGGCACGTGGAGGG	-0.06
CGGGTCACGTGGGGGG	-0.05
TTGATCACGTGAGGTC	0.42
TTTTGCACGTGTTCCG	-0.1
GTTAGCACGTGTCGCT	0.09
CTGTTCACGTGATGGG	0.15
AAGTTCACGTGAGCTG	0.53
GTTTGCACGTGGGACG	0.09
TGTTACACGTGTGATG	0.19
CGGTACACGTGAGTAT	0.42
ATCTTCACGTGTTGAG	0.36
TAGGCCACGTGTGCGT	-0.17
GTGGTCACGTGGGGCC	0.11
AGTGTCACGTGATTGA	0.21
AGTCTCACGTGGGAGT	0.13
TGGTACACGTGATGTG	0.15
AGGTACACGTGTACGT	0.04
TTTATCACGTGGGTGA	0.05
AATGTCACGTGCGTTT	0.13
GATTTCACGTGTGATG	0.31
TAGTGCACGTGGGGAA	-0.24
GGACACACGTGTAGTG	0.1
GGGAACACGTGTGTAT	0.12
AGGAACACGTGAATGT	0.41
TATTGCACGTGTGGAC	0.01

Sequence	relative binding free energy [kcal/mol]
TCTGTCACGTGGGCTT	-0.03
TGAAACACGTGGTTTA	-0.19
ATATGCACGTGGGGAA	-0.1
CTTGACACGTGTAATT	0.21
TTTGGCACGTGGGATC	-0.03
TAGATCACGTGCGGTA	0.18
GTTTTCACGTGTCATA	0.27
TTATTCACGTGTATTC	0.13
TTTGACACGTGTGTAC	0.08
ATGTACACGTGGATAG	-0.14
TTCGGCACGTGAGGGA	-0.09
TAACTCACGTGAGGGT	0.34
AGTTGCACGTGTCTAG	0.03
TATCGCACGTGATGTA	0.06
TGTATCACGTGGTGAT	0.08
GTAATCACGTGTTTTA	0.2
TCTAGCACGTGCGTGG	-0.23
ATGCGCACGTGATGGA	0
AGGCTCACGTGGTGGT	0.1
GAATTCACGTGACTGG	0.6
GAAGTCACGTGATGTG	0.33
ATTTTCACGTGGTCAA	0.24
AGCTGCACGTGGTGGT	-0.08
AATGGCACGTGTAGTG	-0.03
ATGTGCACGTGAAGGA	0.25
TTTTCCACGTGGTCTA	0.02

Sequence	relative binding free energy [kcal/mol]
TTGTTCACGTGGAGCC	0.31
GCTGGCACGTGTTGGC	-0.05
GGTAGCACGTGGGCAA	-0.16
GTATGCACGTGCGCGG	-0.22
TTGGCCACGTGTTGTA	-0.05
TAGACCACGTGGGGGT	-0.35
TGAGTCACGTGGAAAT	0.18
ATTAGCACGTGTGTAA	0.02
GGAAACACGTGTGCGT	0.06
TTAATCACGTGGGGGG	0.05
TTGAGCACGTGGATAT	-0.23
AGCTGCACGTGGTTAT	-0.13
ATTAGCACGTGCGTCT	0
ATCTACACGTGTTGAG	0.21
GGTCACACGTGGGAGA	0.17
TTCGGCACGTGCGTTA	-0.13
CTATTCACGTGTGTGG	0.28
TGGAGCACGTGGACGT	-0.13
AGTCTCACGTGTTGTT	0.17
AGCTGCACGTGAGGTG	0.12
GTGATCACGTGGTGTT	0.07
GACGTCACGTGGGTGG	0.12
CGAGTCACGTGGCGTT	-0.05
GAATACACGTGATGTT	0.28
ATGTGCACGTGAGCTT	-0.02
CAGGGCACGTGCGTTG	-0.2

Sequence	relative binding free energy [kcal/mol]
TGGTTCACGTGTAGAG	0.29
CATAGCACGTGGTATG	-0.19
TGTGTCACGTGGTTCC	0
GGGTTCACGTGGCGTT	0.25
GAGGACACGTGGGTAG	0
AGGGACACGTGGAGGC	0.08
TATCGCACGTGTGTTC	-0.01
GTATTCACGTGGAGGT	0.15
TCGGGCACGTGCGTTG	-0.11
GAAGGCACGTGTAAAG	0.11
AGTGCCACGTGGGATA	-0.22
ATTTGCACGTGCAGTA	-0.03
AGTGTCACGTGGTCAG	-0.03
GATATCACGTGTTAGG	0.29
GGGATCACGTGTCGGG	0.22
TGCTCCACGTGTTGTG	-0.03
TTATACACGTGTACGT	-0.08
CGGCTCACGTGTGTGG	0.18
GAGTGCACGTGGGCCG	-0.21
TGTCGCACGTGTTATG	-0.06
GATATCACGTGAAGTG	0.42
TACATCACGTGGGAGT	-0.04
ATTTTCACGTGGGATG	0.16
TTGTTCACGTGTGTGT	0.29
TGTGGCACGTGGATGA	-0.08
TTTCGCACGTGTTTTC	0.19

Sequence	relative binding free energy [kcal/mol]
ATGGGCACGTGATTTG	-0.05
TGCGGCACGTGTTAGT	-0.05
GTGGCCACGTGTTGGG	0.08
AAGGGCACGTGAGAGA	0.26
ATGTGCACGTGCGTGA	-0.23
CTAAACACGTGGGGTT	-0.17
TGGGCCACGTGGGCGA	-0.17
TGTTGCACGTGGATTG	0.12
CGTGGCACGTGCGGTT	-0.11
ATCTGCACGTGATGTG	0.05
TGTAGCACGTGGTAGG	-0.15
TATGTCACGTGGTCAA	0.01
GGGTTCACGTGGGGAA	0.32
TGTGACACGTGAGTCT	0.1
TCTGGCACGTGGTCGG	-0.18
AGTTTCACGTGTGAAG	0.11
TGTAGCACGTGGTGGA	-0.04
ATGGGCACGTGCTAGT	-0.22
ATGGTCACGTGGCATA	-0.04
AGGCGCACGTGCGAGT	-0.1
CGTCGCACGTGAGGGA	0.27
TGTGGCACGTGGGGAA	-0.19
GGAGACACGTGAAGTT	0.18
TGAGTCACGTGTGAGA	0.26
GTGCTCACGTGGGTAA	0.02
ATAGTCACGTGTTGTA	0.09

Sequence	relative binding free energy [kcal/mol]
AATTTCACGTGTAGGT	0.22
TTTAACACGTGGTAAG	-0.1
GCGGGCACGTGTTTGT	-0.04
TTGTTCACGTGGGGGG	0.18
GGGTTCACGTGTGGAA	0.29
GTACACACGTGGTGTG	-0.12
AGGGACACGTGTGTTA	-0.06
TGTAGCACGTGGAGGC	0.01
GGTGGCACGTGGTACT	-0.21
GTAGGCACGTGCGTGT	-0.11
GGTTGCACGTGAAGTC	0.35
CAATTCACGTGTTTTT	0.21
CTTTACACGTGATGGA	0.24
ATGTTCACGTGAGGGC	0.42
CTTGGCACGTGAGGCA	0.14
ATTGGCACGTGCGCTG	-0.34
ATGGACACGTGTGATA	0.11
CGTTGCACGTGTGGCA	-0.05
TTGTGCACGTGCAGCT	-0.09
AGTGTCACGTGAGTAG	0.25
TTGGACACGTGGGGCA	-0.06
GGATACACGTGATTGT	0.05
GTTGCCACGTGGAATT	0.24
TGTTGCACGTGGTTAG	-0.06
GATAGCACGTGTTGTG	-0.13
GTTTTCACGTGATGAA	0.39

Sequence	relative binding free energy [kcal/mol]
TCGTGCACGTGGGGAT	-0.17
TGTCTCACGTGGTTTC	0.4
TAAAACACGTGAGTGG	0.24
AGTCACACGTGTGGGG	0
AGGTTCACGTGTTATG	0.23
GAGGTCACGTGTCGTC	0.34
AGTTTCACGTGATGTT	0.3
TGTCGCACGTGACGGT	-0.06
TAAGTCACGTGGGATA	0.04
TTTTACACGTGTTCCG	0.17
GCTTACACGTGTTAGT	0.14
CGCGGCACGTGTAGTG	-0.01
TAAGTCACGTGGTACG	-0.01
GATTACACGTGTATTG	0.08
AGGCACACGTGTTTGG	0.02
TTTTCCACGTGTGTTG	0.11
TGGGGCACGTGCGTTT	-0.14
AGAAGCACGTGGTCGG	-0.1
GGTTGCACGTGGGATT	0.05
CATTTCACGTGGTAAT	0.31
TGTATCACGTGTGTAT	0.09
GTATTCACGTGGACGG	0.22
TTGATCACGTGCGTGT	0.04
TCTAGCACGTGCGTTT	-0.07
CTGTACACGTGTTAAG	0.13
AGGGACACGTGCAGGG	-0.06

Sequence	relative binding free energy [kcal/mol]
TTATACACGTGACATG	0.18
GGGTGCACGTGGTTAA	-0.01
GCGTGCACGTGTAGTG	-0.02
AGAGTCACGTGTAGGT	0.11
TTTTTCACGTGGGAGG	0.3
TTCGGCACGTGGGTTT	-0.12
CGTTGCACGTGGTAAT	0.03
AGTTTCACGTGGCCTG	0.15
GGCGGCACGTGAGGCA	0.28
TTGTTCACGTGGGGGA	0.16
GTTCGCACGTGTACTG	0.12
AGGCGCACGTGATGGA	0.16
GTGTGCACGTGAAAGT	0.13
ATGTTCACGTGAGAGA	0.33
GGATTCACGTGGCTAG	0.13
TTGGTCACGTGAGGTG	0.31
TGTCGCACGTGTGGTC	-0.06
TTCTGCACGTGAACGG	0.32
CTGTTCACGTGTACGG	0.22
TACGGCACGTGGTTGG	-0.04
CGGGACACGTGAGATA	0.54
CATTACACGTGTGTTG	0.11
